Data published in the supplement of paper PMC9542798.

Experiments:
Experiment in all cases: minimum inhibitory concentration
Gentamicin = compound: CNC(C)C1CCC(N)C(OC2C(N)CC(N)C(OC3OCC(C)(O)C(NC)C3O)C2O)O1 [Gentamicin]
Method: (§1)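 Broth microdilution MIC per ISO 10932 on precoated VetMIC Lact-1 plates (tylosin, vancomycin and ampicillin plates prepared manually) against lactic acid bacteria and bifidobacteria isolates. Plates were read visually after 48 h anaerobic incubation (bifidobacteria 72 h; enterococci and staphylococci 24 h aerobic) at species-specific temperatures of 30 or 37 °C. Values prefixed with < or > are outside the tested dilution range.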

Clindamycin = compound: CCC[C@@H]1C[C@@H](C(=O)N[C@@H]([C@H]2O[C@H](SC)[C@H](O)[C@@H](O)[C@H]2O)[C@H](C)Cl)N(C)C1 [Clindamycin]
Method: as §1

Tetracycline = compound: CN(C)[C@@H]1C(O)=C(C(N)=O)C(=O)[C@@]2(O)C(O)=C3C(=O)c4c(O)cccc4[C@@](C)(O)[C@H]3C[C@@H]12 [Tetracycline]
Method: as §1

Kanamycin = compound: NC[C@H]1O[C@H](O[C@H]2[C@H](O)[C@@H](O[C@H]3O[C@H](CO)[C@@H](O)[C@H](N)[C@H]3O)[C@H](N)C[C@@H]2N)[C@H](O)[C@@H](O)[C@@H]1O [Kanamycin]
Method: as §1

Vancomycin = compound: CN[C@H](CC(C)C)C(=O)N[C@H]1C(=O)N[C@@H](CC(N)=O)C(=O)N[C@H]2C(=O)N[C@H]3C(=O)N[C@H](C(=O)N[C@H](C(=O)O)c4cc(O)cc(O)c4-c4cc3ccc4O)[C@H](O)c3ccc(c(Cl)c3)Oc3cc2cc(c3O[C@@H]2O[C@H](CO)[C@@H](O)[C@H](O)[C@H]2O[C@H]2C[C@](C)(N)[C@H](O)[C@H](C)O2)Oc2ccc(cc2Cl)[C@H]1O [Vancomycin]
Method: as §1

Erythromycin = compound: CC[C@H]1OC(=O)[C@H](C)[C@@H](O[C@H]2C[C@@](C)(OC)[C@@H](O)[C@H](C)O2)[C@H](C)[C@@H](O[C@@H]2O[C@H](C)C[C@H](N(C)C)[C@H]2O)[C@](C)(O)C[C@@H](C)C(=O)[C@H](C)[C@@H](O)[C@]1(C)O [Erythromycin]
Method: as §1

Chloramphenicol = compound: O=C(N[C@H](CO)[C@H](O)c1ccc([N+](=O)[O-])cc1)C(Cl)Cl [Chloramphenicol]
Method: as §1

Ampicillin = compound: CC1(C)S[C@@H]2[C@H](NC(=O)[C@H](N)c3ccccc3)C(=O)N2[C@H]1C(=O)O [Ampicillin]
Method: as §1

Streptomycin = compound: CN[C@@H]1[C@H](O[C@H]2[C@H](O[C@H]3[C@H](O)[C@@H](O)[C@H](N=C(N)N)[C@@H](O)[C@@H]3N=C(N)N)O[C@@H](C)[C@]2(O)C=O)O[C@@H](CO)[C@H](O)[C@H]1O [Streptomycin]
Method: as §1

Neomycin = compound: NC[C@@H]1O[C@H](O[C@H]2[C@@H](O)[C@H](O[C@@H]3[C@@H](O)[C@H](N)C[C@H](N)[C@H]3O[C@H]3O[C@H](CN)[C@@H](O)[C@H](O)[C@H]3N)O[C@@H]2CO)[C@H](N)[C@@H](O)[C@@H]1O [Neomycin]
Method: as §1
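Further: isolates derived from commercial starter, protective, probiotic or feed-additive cultures, from fermented products, from human gut mucosa or feces, and from human milk or colostrum.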

| Test System | minimum inhibitory concentration (Gentamicin) [µg/mL] | minimum inhibitory concentration (Clindamycin) [µg/mL] | minimum inhibitory concentration (Tetracycline) [µg/mL] | minimum inhibitory concentration (Kanamycin) [µg/mL] | minimum inhibitory concentration (Vancomycin) [µg/mL] | minimum inhibitory concentration (Erythromycin) [µg/mL] | minimum inhibitory concentration (Chloramphenicol) [µg/mL] | minimum inhibitory concentration (Ampicillin) [µg/mL] | minimum inhibitory concentration (Streptomycin) [µg/mL] | minimum inhibitory concentration (Neomycin) [µg/mL] |
| --- | --- | --- | --- | --- | --- | --- | --- | --- | --- | --- |
| Bifidobacterium animalis IM786 (strain group: human intestinal mucosa or faeces) | 128 | 0.25 | 16 | 512 | 0.5 | 0.25 | 2 | 0.125 | 128 | 256 |
| Bifidobacterium adolescentis IM755 (strain group: human intestinal mucosa or faeces) | 128 | 0.12 | 16 | 512 | 0.5 | 0.25 | 2 | 0.063 | 128 | 256 |
| Bifidobacterium adolescentis IM785 (strain group: human intestinal mucosa or faeces) | 256 | 0.12 | 8 | 1020 | 0.5 | 0.25 | 4 | 0.125 | > 256 | > 256 |
| Lactiplantibacillus plantarum IM1472 (strain group: starter cultures) | 4 | 0.06 | 16 | 128 | > 128 | 0.5 | 8 | 2 | 64 | 4 |
| Bifidobacterium adolescentis IM794 (strain group: human intestinal mucosa or faeces) | 128 | 0.06 | 1 | 512 | 0.5 | 0.12 | 2 | 0.125 | 256 | 128 |
| Lactobacillus gasseri IM887 (strain group: human milk or colostrum) | 2 | 4 | 2 | 64 | 1 | 0.12 | 2 | 1 | 4 | 16 |
| Bifidobacterium adolescentis IM775 (strain group: human intestinal mucosa or faeces) | 256 | 0.12 | 16 | 512 | 0.5 | 0.25 | 2 | 0.25 | 128 | 256 |
| Bifidobacterium longum IM964 (strain group: human intestinal mucosa or faeces) | 8 | 0.06 | 0.25 | 256 | 0.5 | 0.06 | 0.5 | 0.125 | 8 | 32 |
| Lactococcus lactis IM1347 (strain group: non-starter strains) | 2 | 0.25 | 0.25 | 8 | < 0.25 | 1 | 8 | 0.5 | 32 | 2 |
| Bifidobacterium adolescentis IM714 (strain group: human intestinal mucosa or faeces) | 128 | 0.06 | 1 | 512 | 0.5 | 0.12 | 2 | 0.125 | 128 | 128 |
| Lactobacillus delbrueckii IM1117 (strain group: non-starter strains) | 2 | 0.12 | 2 | 32 | 2 | 0.12 | 4 | 1 | 8 | 8 |
| Bifidobacterium adolescentis IM782 (strain group: human intestinal mucosa or faeces) | 128 | 0.06 | 2 | 512 | 0.5 | 0.12 | 2 | 0.125 | 256 | 128 |
| Lactobacillus acidophilus IM304 (strain group: probiotic strains) | 4 | 1 | 0.25 | 32 | 0.5 | 0.25 | 4 | 1 | 4 | 8 |
| Lacticaseibacillus rhamnosus IM1433 (strain group: starter cultures) | 2 | > 16 | 0.5 | 16 | > 128 | > 8 | 4 | 2 | > 256 | 4 |
| Lactococcus lactis subsp. cremoris IM241 (strain group: starter cultures) | 64 | > 16 | 1 | 256 | 1 | 8 | 4 | 1 | 256 | > 256 |
| Staphylococcus epidermidis IM1435 (strain group: starter cultures) | 2 | > 16 | 2 | 32 | 2 | > 8 | 16 | 0.25 | 256 | 8 |

| Test System | minimum inhibitory concentration (Gentamicin) [µg/mL] | minimum inhibitory concentration (Clindamycin) [µg/mL] | minimum inhibitory concentration (Tetracycline) [µg/mL] | minimum inhibitory concentration (Kanamycin) [µg/mL] | minimum inhibitory concentration (Vancomycin) [µg/mL] | minimum inhibitory concentration (Erythromycin) [µg/mL] | minimum inhibitory concentration (Chloramphenicol) [µg/mL] | minimum inhibitory concentration (Ampicillin) [µg/mL] | minimum inhibitory concentration (Streptomycin) [µg/mL] | minimum inhibitory concentration (Neomycin) [µg/mL] |
| --- | --- | --- | --- | --- | --- | --- | --- | --- | --- | --- |
| Lacticaseibacillus paracasei/casei IM1458 (strain group: probiotic strains) | 8 | 0.5 | 2 | 64 | > 8 | < 0.12 | 8 | 0.5 | 32 | – |
| Lactobacillus gallinarum IM1460 (strain group: probiotic strains) | 8 | 2 | 4 | 64 | 1 | < 0.12 | 4 | 1 | 16 | – |
| Lacticaseibacillus casei IM1148 (strain group: non-starter strains) | 4 | 0.12 | 1 | 64 | – | 0.12 | 4 | 4 | 16 | 4 |
| Limosilactobacillus fermentum IM818 (strain group: human milk or colostrum) | 2 | 0.06 | 8 | 64 | – | 0.5 | 8 | 1 | 32 | 2 |
| Lactiplantibacillus plantarum IM1032 (strain group: non-starter strains) | 8 | 1 | 16 | 256 | – | 0.5 | 8 | 0.5 | 64 | 8 |
| Pediococcus acidilactici/pentosaceus/lolli IM720 (strain group: human milk or colostrum) | 16 | 0.25 | 64 | 256 | – | 1 | 8 | 4 | 128 | 32 |
| Limosilactobacillus reuteri IM843 (strain group: human milk or colostrum) | 2 | 0.12 | > 64 | 64 | – | 0.5 | 4 | > 16 | 16 | 1 |
| Pediococcus pentosaceus IM1065 (strain group: non-starter strains) | 4 | 0.06 | 16 | 128 | – | 0.5 | 2 | 2 | 64 | 4 |
| Lacticaseibacillus rhamnosus IM660 (strain group: probiotic strains) | 2 | 1 | 1 | 32 | – | 0.5 | 8 | 2 | 8 | 4 |
| Lacticaseibacillus casei IM1106 (strain group: non-starter strains) | 2 | 0.25 | 1 | 64 | – | 0.25 | 4 | 2 | 16 | 4 |
| Lacticaseibacillus rhamnosus IM1119 (strain group: non-starter strains) | 4 | 1 | 1 | 64 | – | 0.25 | 8 | 2 | 8 | 8 |
| Limosilactobacillus fermentum IM689 (strain group: human intestinal mucosa or faeces) | 1 | 0.06 | 8 | 64 | – | 0.5 | 16 | 0.5 | 32 | 2 |
| Lactiplantibacillus plantarum IM1045 (strain group: non-starter strains) | 8 | 1 | 16 | 128 | – | 0.5 | 8 | 0.5 | 64 | 8 |
| Latilactobacillus curvatus IM1134 (strain group: non-starter strains) | 2 | 0.5 | 1 | 32 | – | 0.25 | 4 | 4 | 8 | 4 |
| Lacticaseibacillus rhamnosus IM817 (strain group: human milk or colostrum) | 8 | 1 | 2 | 64 | – | 0.25 | 8 | 2 | 16 | 8 |
